From US20260137799A1, “ANTI-MUC1* ANTIBODY DRUG COMPLEXES AND USES THEREOF” (Minerva Biotechnologies Corporation, priority 2023, published 2026)

Columns and labels:
[1] = molecular target: PSMGFR C-10 peptide (SEQ ID NO: 3) (Homo sapiens, UniProt P15941); test: ELISA binding to PSMGFR C-10 peptide
From the text: Cancer selective anti-MUC1* antibodies bind to a membrane proximal conformational epitope within the MUC1* extracellular domain, as described in WO 2020/146902.
The 3C2B1 epitope was mapped more precisely with additional PSMGFR peptide variants (FIGS. 2A, 2B).

MUC1* = test: Western blot recognition of linearized epitope; assay type: binding
Experimental: The binding strength of anti-MUC1* antibodies is evaluated by determining their ability to displace NMF7-AB (a MUC1* ligand) from MUC1* immobilized on the plastic surface of a 96-well plate. Because the cancer-selective MUC1* epitope is a conformational epitope, cancer-selective anti-MUC1* antibodies should not recognize MUC1* on a western blot, where the epitope is linearized. MMP9 is a protease that cleaves MUC1 to generate MUC1*. MMP9 is a predictor of poor prognosis for breast cancers. Some cancer-selective anti-MUC1* antibodies, particularly breast cancer selective antibodies, should bind to cells engineered to express MUC1 after they are contacted with MMP9 to convert the MUC1 to MUC1*.

Chain of PSMGFR C-10 peptide (SEQ ID NO: 3) (P15941 1110-1144 limits assumed): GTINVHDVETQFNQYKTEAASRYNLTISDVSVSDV

Does not bind C-10 [1]: 0
B1: 25E6: anti-MUC1* monoclonal antibody that bound to the PSMGFR peptide (antibody, V domains shown)
VH: EVQLVESGGGLVKPGGSLRLSCAASGFTFSSYGMSWVRQAPGKGLEWVATISNGGRHTFYPDSVKGRFTISRDNAKNTLYLQMNSLRAEDTAVYLCVRQTGTEGWFAYWGQGTLVTVSS
VL: DVVMTQTPLSLSVTPGQPASISCKSSQSLLDSDGKTYLNWLLQKPGQSPKRLIYLVSKLDSGVPDRFSGSGSGTDFTLKISRVEAEDVGVYYCWQGTHFPQTFGGGTKVEIK
Does not recognize a linear epitope (MUC1*): 0
